The values below come from paper PMC12136788.

The other results are listed elsewhere or left out.

Sequences and labels used below:
T1: UNK ZnF1-3 (human, UniProt Q9C0B0 31-174)
T1 sequence: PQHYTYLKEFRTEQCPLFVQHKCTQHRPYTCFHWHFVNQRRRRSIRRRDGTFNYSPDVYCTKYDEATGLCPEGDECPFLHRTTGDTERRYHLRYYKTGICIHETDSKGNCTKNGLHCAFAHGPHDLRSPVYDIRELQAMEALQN

B1: chr5:154346341:154346342:+_ENSG00000082515_ENST00000439747|hu_hu|FALSE|FALSE (ssRNA)
RNA: GGGAGUUCUACAGUCCGACGAUCAACUGCCGUCUUUGGUGGCUCAGGUGGAGGUGGGGGCCCUUCCACCAACUUCACAAAAUAAUGGCAAUAAACCUUCUCCAUGAUCCCAAAGCGACCUCUGCCAUGGUAGCGGAUGCGUUUCAACAGAGGAUUGAGCAUCA
B2: chr1:71529667:71529668:-_ENSG00000132485_ENST00000254821|hu_hu|motif|central (ssRNA)
RNA: GGGAGUUCUACAGUCCGACGAUCUUGUCACUGGAAAUACUGUUAAGAGAAACCUUUUUAUUUUUUAAACCAGAAAACAAACGGAAGCUCAUGUGACCAGAUUUUAAUUUUGAGAAAUAAACUCCAAAAGCAUUUUAAGCCAUACAACAGAGGAUUGAGCAUCA
B3: chr17:63010574:63010575:-_ENSG00000120063_ENST00000439174|hu_hu|FALSE|FALSE (ssRNA)
RNA: GGGAGUUCUACAGUCCGACGAUCGAAACAUUCCACCAGGAAUUUUUGGACGUCUCUUAAGCAGUGGGGAUCCCCUUCAAAUUCUAGGAAAUAGUCUUUGAUGCUCACAAUUUGCACCUUCUCCUCAAGCAAGUCUGUCUUGUUCAACAGAGGAUUGAGCAUCA
B4: chr6:133136146:133136147:+_ENSG00000112306_ENST00000230050|hu_mus|FALSE|FALSE (ssRNA)
RNA: GGGAGUUCUACAGUCCGACGAUCACACAGAUGGGCUUGGCGCUUGUCUAAGGCUUUGGCAGCUUCGCGUAUGCCACGUGCUAGGCCAUCGUGGAUGAGGGCGGUCUUCAGCACCUCUUGUAGAGCAGUGUUGACGUCCAUUACCAACAGAGGAUUGAGCAUCA
B5: chr4:148551591:148551592:-_ENSMUSG00000063077_ENSMUST00000060537|mus_mus|FALSE|FALSE (ssRNA)
RNA: GGGAGUUCUACAGUCCGACGAUCACCUUACAAAAUUAAAUAUCCCUGUAAAUUAGACAAGAAGCAGCAGGUAACAAAGUCUAUGCUUUGAAAUAUGUGCCAGGAAAAAUCAUGUUUUAGACCCCAAACACCUUUCACAACCAUCAACAGAGGAUUGAGCAUCA
B6: chr12:110819636:110819637:-_ENSG00000196510_ENST00000455511|hu_hu|motif|central (ssRNA)
RNA: GGGAGUUCUACAGUCCGACGAUCGAGCCGUAUGGCCUCCCGAAAGUGGAUUAUUGCUUCUUGGACUCUGCCCAUGUUCCGGAGUGCUGCUCCCUUAAGUAGCAGAGCUUGAACACUAUUACUGUUCAGCUGAAUGGCCUUGGCCAACAGAGGAUUGAGCAUCA
B7: 83145050_83145604_2900_CDS_ENSMUSG00000031865_ENSMUST00000113913|mouse|control|control (ssRNA)
RNA: GGGAGUUCUACAGUCCGACGAUCAGCGCUGUCCAACUUCUUCUCCAGGAGGCUGAGCCGCACGUUGGCCUCACUCAGCUCCUCUCCCUUAAUCUUGAGUGACUUCUUUAACUCCUUGAUAACUGUCUCUCGAUCCUCAAGCUUCAACAGAGGAUUGAGCAUCA
B8: chr11:50196439:50196440:+_ENSMUSG00000007850_ENSMUST00000069304|mus_hu|FALSE|FALSE (ssRNA)
RNA: GGGAGUUCUACAGUCCGACGAUCCCCGUAUCUGUGAUCAGACAUUCCUGAAAAACAGUAAUUGAGGUCUCUUCCAAAUCUAUCUGACCCAAAUCCAUAGCCAUCAUUAUAGCCAUUGUAAUCAUCAUAGCCUCCAUAGCCUCCCAACAGAGGAUUGAGCAUCA
B9: chr1:244855233:244855234:+_ENSG00000121644_ENST00000302550|hu_mus|hu_hu_hu_mus_True|38_58 (ssRNA)
RNA: GGGAGUUCUACAGUCCGACGAUCCAUCAGAUGGUAGGCGUUGCCCUUAUACUCUUUCCCCAGUUCUUCUACAAUUUUUUCUAUAUCAUCUUCUAGAAAGUCCGUGCUUCCUAGAACAACAGCUUCUUUAAAUUUAAAUGUUUCCAACAGAGGAUUGAGCAUCA
B10: chr11:12883819:12883820:+_ENSG00000187079_ENST00000361905|hu_hu|motif|central (ssRNA)
RNA: GGGAGUUCUACAGUCCGACGAUCAAUGUGACUAGACACCUGUUUUCUGGUCCUCGUCUUGCCUGUCCUGAGUUUGAUGUAUCUGGCGGUCAAUUCAUUCCUACCAUACAUUUUGCCUUCGUCUGAUAAGAUGAUUUUCCUCCUCAACAGAGGAUUGAGCAUCA
B11: chr4:138453181:138453182:-_ENSG00000189184_ENST00000344876|hu_mus|FALSE|FALSE (ssRNA)
RNA: GGGAGUUCUACAGUCCGACGAUCGCUCCUCAUAAAUCCUGUAUUUCAGAUUCUUAGCCAGGACAUCGUGGCUGAAAAACGCCAUCAGAAGUGCAAGUGCAAAUCUAAAGUGCAUUUUAGUAUUCAUUUGGUGCAUUGGUCAGUCAACAGAGGAUUGAGCAUCA
B12: chr17:49039638:49039639:-_ENSG00000008294_ENST00000262013|hu_hu|FALSE|FALSE (ssRNA)
RNA: GGGAGUUCUACAGUCCGACGAUCCAUUCUGAACCCCAGGGAUUCCAUAAUAGAAAUAAAUACUGAAAUAACUACAUUGCUAAAUGAGCUCUUUGCUCAUAGAAAUGAAGCUCAGCCUCUAAGAGACAGCAAGUGGGACAUUCUCAACAGAGGAUUGAGCAUCA
B13: chr1:163117127:163117128:-_ENSG00000143248_ENST00000313961|hu_mus|hu_hu_hu_mus_False|48_68 (ssRNA)
RNA: GGGAGUUCUACAGUCCGACGAUCUGCUACAAAGGAUGUAACUCAACUCACAGGGCAACUUUUGGAAGCCUGGCUAAAUGACUACUUGAUUAACUCCUUAUAAAAUUCAGAGCGCACAAAGCGGGGCAGAGAAUCCUUCUCCAUCAACAGAGGAUUGAGCAUCA
B14: chr1:185277986:185277987:-_ENSG00000116679_ENST00000392007|hu_hu|FALSE|FALSE (ssRNA)
RNA: GGGAGUUCUACAGUCCGACGAUCCCUGCUUUACUCGAUCCAUCUUCAGCUUUUUUGCUGCAGAAUAAACAUCUUUUACCAAUUCCUUAUCUGCUUUCAACUGAGCAGUGUAGGCAUAAUUCAACAAGACUUCAACAGCUUCUGCAACAGAGGAUUGAGCAUCA

The assay deals with T1, UNK ZnF1-3. Description: nsRBNS (natural sequence RNA bind-n-seq); RBNS binding buffer (assumed for nsRBNS): 25 mM Tris pH 7.5, 150 mM KCl, 3 mM MgCl2, 0.01% Triton X-100, 500 ug/ml BSA, 20 U/ml SUPERase-In, 4 C; UNK is unkempt and MSI1 is Musashi-1; names of the RNAs are library labels; protein concentration not given here; high values mean tight binding.
The molecule B1 showed a binding signal of 0.79 enrichment R.

In turn, B2 gave a binding signal of 1.48 enrichment R.

Molecule B3 came in with a binding signal of 0.765 enrichment R.

Consider B4, for which the binding signal is 0.625 enrichment R.

Molecule B5 had a binding signal of 1.68 enrichment R.

B6: the binding signal was 0.898 enrichment R.

The molecule B7 came in with a binding signal of 0.8 enrichment R.

Regarding B8, the binding signal amounted to 1.04 enrichment R.

As to B9, the binding signal worked out at 1.48 enrichment R.

As to B10, the binding signal was 0.306 enrichment R.

For the molecule B11, the binding signal is 1.03 enrichment R.

On to B12, for which the binding signal turned out to be 1.46 enrichment R.

With B13, the binding signal is 1.12 enrichment R.

B14 showed a binding signal of 1.21 enrichment R.
